We go through 44 molecules from paper PMC4336329 (PLoS ONE, 2015).

Each structure is given as a SMILES string. About 2,200 (0.71%) of roughly 310,000 compounds showed an effect of 50% or more. Effects have a minus sign here. The list shows a part of the results.

The target of this experiment is human ether-à-go-go-related gene (hERG) potassium channel (human, UniProt Q12809). The experiment can be described thus: primary screen, population patch clamp on CHO cells stably expressing hERG.
Chain of human ether-à-go-go-related gene (hERG) potassium channel (Q12809 whole entry, looked up): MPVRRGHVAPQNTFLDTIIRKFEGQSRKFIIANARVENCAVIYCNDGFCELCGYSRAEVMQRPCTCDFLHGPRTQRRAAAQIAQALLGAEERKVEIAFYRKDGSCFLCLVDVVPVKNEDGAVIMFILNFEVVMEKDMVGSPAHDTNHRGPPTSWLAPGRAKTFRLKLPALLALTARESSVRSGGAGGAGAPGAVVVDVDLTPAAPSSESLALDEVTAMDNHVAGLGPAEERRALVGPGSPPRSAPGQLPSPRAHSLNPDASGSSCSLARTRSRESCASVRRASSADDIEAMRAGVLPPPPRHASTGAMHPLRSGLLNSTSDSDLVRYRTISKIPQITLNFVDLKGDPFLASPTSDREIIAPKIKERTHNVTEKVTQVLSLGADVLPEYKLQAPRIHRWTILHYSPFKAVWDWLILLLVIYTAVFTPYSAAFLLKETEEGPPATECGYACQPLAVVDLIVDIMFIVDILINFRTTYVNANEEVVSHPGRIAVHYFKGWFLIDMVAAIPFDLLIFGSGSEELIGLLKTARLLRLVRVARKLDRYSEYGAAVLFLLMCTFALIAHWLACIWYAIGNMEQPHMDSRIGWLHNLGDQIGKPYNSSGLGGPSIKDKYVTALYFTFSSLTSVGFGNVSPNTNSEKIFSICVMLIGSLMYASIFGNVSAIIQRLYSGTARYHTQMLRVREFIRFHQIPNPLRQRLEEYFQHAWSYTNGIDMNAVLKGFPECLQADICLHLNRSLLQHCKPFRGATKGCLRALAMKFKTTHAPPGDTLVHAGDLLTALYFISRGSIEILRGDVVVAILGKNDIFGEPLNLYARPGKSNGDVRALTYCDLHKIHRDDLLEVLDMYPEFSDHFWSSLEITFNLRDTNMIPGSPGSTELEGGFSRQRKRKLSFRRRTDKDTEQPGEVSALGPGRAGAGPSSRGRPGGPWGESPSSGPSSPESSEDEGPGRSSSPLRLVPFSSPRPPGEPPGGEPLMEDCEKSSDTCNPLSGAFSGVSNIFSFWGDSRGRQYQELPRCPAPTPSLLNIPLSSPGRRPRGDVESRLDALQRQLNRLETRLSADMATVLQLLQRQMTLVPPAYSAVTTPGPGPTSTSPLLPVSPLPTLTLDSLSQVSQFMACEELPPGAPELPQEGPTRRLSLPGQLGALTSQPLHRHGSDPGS
In the case of `COc1cc2c(cc1NC(=O)COC(=O)C(CCSC)NC(=O)c1ccccc1Cl)oc1ccccc12` (centres unmarked), the “hERG current change (%, negative = inhibition) at 1uM” value worked out at 9.35%.
Under `Cc1cccc(S(=O)Cc2ccc(C(=O)N3CCOCC3)o2)c1` (centres unmarked) stands 16%; under `CC(C)Cc1ccc(S(=O)(=O)N2CCCC2)cc1`, -2.67%; under `CCn1c(-c2cc3ccccc3cc2O)n[nH]c1=S`, 10.1%.
Under `O=C(COc1ccccc1F)Nc1ccc(S(=O)(=O)N2CCCC2)cc1` stands 12.3%; under `CC1Cc2ccccc2N1C(=O)COC(=O)c1ccc(O)cc1` (centres unmarked), 8.93%.
In the case of `COc1ccccc1NC(=O)Nc1ccccc1N1CCOCC1`, the “hERG current change (%, negative = inhibition) at 1uM” value was 6.95%.
Under `Cc1cccc(C(=O)NNS(=O)(=O)c2ccc(F)cc2)c1` stands 2.71%; under `Cc1cccc(NC(=S)NCCc2c[nH]c3ccccc23)c1`, 6.33%; under `CCOC(=O)N1CCN(C(=S)NC(=O)c2ccc(F)cc2)CC1`, -0.287%.
Then `CCOC(=O)c1[nH]c(C)c(C(=O)OCC(=O)NC2CCS(=O)(=O)C2)c1C` (centres unmarked), with 13%; and `Cc1ccc(C(=O)NNC(=O)c2cc(OCC(F)(F)F)ccc2OCC(F)(F)F)cc1`, with -10.2%.
Under `COC(=O)c1c(C)cc(OC(C)=O)c(C)c1OC(C)=O` stands 15.4%.
Take `COC(=O)c1cn(NC(=O)Cc2ccc(Cl)c(Cl)c2)c(=O)c2ccccc12`: the “hERG current change (%, negative = inhibition) at 1uM” value was determined as 11.4%.
In the case of `CC(=O)c1ccc(N2CCN(C(=O)c3ccc(NC4=NC5CS(=O)(=O)CC5S4)cc3)CC2)cc1` (centres unmarked), the “hERG current change (%, negative = inhibition) at 1uM” value is -0.635%.
Regarding `COc1ccc(CNCCC(c2ccc(F)cc2)c2ccc(OC(C)C)cc2)cc1OC` (centres unmarked), the “hERG current change (%, negative = inhibition) at 1uM” value is -46.8%.
Regarding `O=C(OCCNc1ncc(C(F)(F)F)cc1Cl)c1ccc(S(=O)(=O)N2CCOCC2)cc1`, the “hERG current change (%, negative = inhibition) at 1uM” value came to 12.5%.
Then `Cn1c(=O)n(C)c2cc(NC(=O)c3cccc([N+](=O)[O-])c3)c(Br)cc21`, with 8.08%.
Under `Cc1c(NC(=O)c2cc3c(s2)CCCC3)c(=O)n(-c2ccccc2)n1C` stands 17.6%; under `COc1cccc(NC(=O)CN(C)C(=O)CN2C(=O)NC(C)(c3ccc4ccccc4c3)C2=O)c1` (centres unmarked), 5.34%; under `Cn1nnc2cc(NC(=O)N3CC4(C)CC3CC(C)(C)C4)ccc21` (centres unmarked), 14.7%.
As to `Cn1cc(CN2CCc3c([nH]c4ccccc34)C2C2CCCCC2)cn1` (centres unmarked), the “hERG current change (%, negative = inhibition) at 1uM” value worked out at 15.1%.
Under `O=c1[nH]c(=O)n(-c2cccc3ccccc23)c(O)c1C=NCCCn1ccnc1` stands 10.1%; under `Cc1cc(OCC(=O)OCC(=O)N2CC(C)CC(C)C2)ccc1Cl` (centres unmarked), 11%; under `OCCCNc1c2c(nc3cc(-c4ccc(Cl)cc4)nn13)CCC2`, 1.48%.
For the molecule `CCCCN1C(=O)c2ccc(C(=O)NCc3ccco3)cc2C1=O`, the “hERG current change (%, negative = inhibition) at 1uM” value is -9.52%.
Under `CC(=O)CSc1nnc(-c2ccc3c(c2)OCO3)o1` stands 10.1%; under `Oc1cccc(Oc2ncc(C(F)(F)F)cc2Cl)c1`, 6.62%; under `COc1ccc(-c2noc(CCc3ccccc3)n2)cc1`, 4.46%.
For `CCCC1=Nc2cc(C(=O)NCc3ccco3)ccc2Sc2ccccc21`, the “hERG current change (%, negative = inhibition) at 1uM” value is on record as 11.9%.
As for `Cc1cc(C)n(C(=O)CCN2C(=O)c3ccccc3C2=O)n1`, the “hERG current change (%, negative = inhibition) at 1uM” value was 7.34%.
As for `CCOC(=O)c1[nH]cnc1C(=O)N1CCN(C(=O)OC(C)(C)C)CC1`, the “hERG current change (%, negative = inhibition) at 1uM” value stood at 22.6%.
Then `COc1ccc(N2C(=O)CC(S/C(N)=N/N=C(\C)c3cccs3)C2=O)cc1` (centres unmarked), with -7.55%.
Under `C=CCOc1ccc(CNCc2cccnc2)cc1OCC.Cl` stands 11.8%; under `CCCn1c(CCC(=O)O)ccc1-c1ccc(OC)cc1`, 13.1%.
Then `CCN(CC)C(=O)CSc1ccc(C(F)(F)F)cc1[N+](=O)[O-]`, with 13.8%; and `CC(NC(=O)C(c1ccccc1)c1ccccc1)c1ccccc1` (centres unmarked), with 13.6%; and `COC(=O)c1ccc(-n2nnnc2SCC(=O)Nc2cc(OC)ccc2OC)cc1`, with 5.1%.
Take `Cc1cc(C)n(S(=O)(=O)c2ccc(C)c(C)c2C)n1`: the “hERG current change (%, negative = inhibition) at 1uM” value amounted to 10.1%.
Under `CN(CC(=O)Nc1ccccc1Br)C(=O)c1cccc(S(=O)(=O)NCc2ccccc2)c1` stands 10.8%; under `CN(C)c1ccc(CNc2ncn[nH]2)cc1`, 14.4%.
As to `CCN=C(NCC)SC1CC(=O)N(c2ccccc2)C1=O` (centres unmarked), the “hERG current change (%, negative = inhibition) at 1uM” value is recorded as -3.74%.
With `CCOc1ccccc1N(C)C(=O)Cn1ncc2c([nH]c3ccccc32)c1=O`, the “hERG current change (%, negative = inhibition) at 1uM” value is recorded as 10.3%.
With `COc1ccc(CCn2nnnc2C(C(C)C)N2CCN(c3ncccn3)CC2)cc1OC` (centres unmarked), the “hERG current change (%, negative = inhibition) at 1uM” value is on record as 2.11%.
